From patent US10647743B2, “Method of making biologically active alpha-beta peptides” (priority 2008, dated 2020)
Where two headings read alike, the source gives them in different places. At least one compound was matched to its structure with a doubt left. *1 amine or outer side, *2 acyl side, *3 side chain or, on linkers, in order; H or OH if unused. Where a SMILES comes first, the peptide text is derived from it. [ ]: non-standard residue; d: D form. ξ: configuration not given here. ξ(4-Aminopyrrolidine-3-CO) = O=C(C1CNCC1N[*:1])[*:2]; X2 = O=C([C@H]1CCC[C@@H]1N[*:1])[*:2]; X3 = O=C([C@H]1CNC[C@@H]1N[*:1])[*:2]; β3hR = N=C(N)NCCC[C@H](N)CC(=O)O; β3hT = C[C@@H](O)[C@H](N)CC(=O)O; β3hE = N[C@@H](CCC(=O)O)CC(=O)O; X1 = O=C(C1CCCC1N[*:1])[*:2]

Experiments:
[1] = target: T1, envelope glycoprotein of the HIV-1 clone HXB2 (Human immunodeficiency virus type 1 group M subtype B, UniProt P04578); experiment: cell-cell fusion assay; assay type: cell-based
T1 construct: One cell line expresses HIV-1 Env (processed by cellular proteases to generate gp120+gp41); expressed in transfected cells; host or cells: CHO cells expressing HXB2 env (and Tat); U373-MAGI target cells

gp41-5 = gp41-5 (Human immunodeficiency virus type 1 group M subtype B, UniProt P04578, C598G/DEL582-595/DEL601-626/T627G/W596S); assay type: binding, HIV; conditions: competition FP; read-out: Ki for gp41-5

| Compound | IC50 ([1]; read-out: Cell-Cell Fusion IC50, Table 2) | IC50 ([1]; read-out: Cell-cell fusion inhibition IC50, Table 4, HxB2 envelope, mean ± S.E.M., three experiments) | Ki (gp41-5) |
| --- | --- | --- | --- |
| CC[C@H](C)[C@H](NC(=O)[C@H](C)NC(=O)C1CNCC1NC(=O)[C@H](CC(=O)O)NC(=O)[C@H](Cc1c[nH]c2ccccc12)NC(=O)C1CCCC1NC(=O)[C@H](CCC(=O)O)NC(=O)[C@H](Cc1c[nH]c2ccccc12)NC(=O)[C@@H](NC(=O)C[C@@H](NC(C)=O)[C@@H](C)O)[C@@H](C)O)C(=O)N[C@@H](C)C(=O)N[C@@H](CCC(=O)O)CC(=O)N[C@@H](Cc1ccc(O)cc1)C(=O)N[C@@H](C)C(=O)NC1CCCC1C(=O)N[C@@H](CCCNC(=N)N)C(=O)N[C@H](C(=O)N[C@@H](CCC(=O)O)C(=O)NC1CCCC1C(=O)N[C@@H](CC(C)C)C(=O)N[C@H](C(=O)NC1CNCC1C(=O)N[C@@H](C)C(=O)N[C@@H](C)C(=O)N[C@@H](CCC(N)=O)C(=O)N[C@@H](CCC(=O)O)CC(=O)N[C@@H](CCC(N)=O)C(=O)N[C@@H](CCC(N)=O)C(=O)N[C@@H](CCC(=O)O)CC(=O)N[C@@H](CCCCN)C(=O)N[C@@H](CC(N)=O)C(=O)N[C@@H](CCC(=O)O)C(=O)NC1CCCC1C(=O)N[C@@H](C)C(=O)N[C@@H](CC(C)C)C(=O)NC1CNCC1C(=O)N[C@@H](CCC(=O)O)C(=O)N[C@@H](CC(C)C)C(N)=O)[C@@H](C)CC)[C@@H](C)CC (stereo partly drawn) [compound 10, Ac-TTWEXWDZAIAEYAXRIEXLIZAAQEQQEKNEXALZEL-NH2] (Ac-[β3hT]TWE[X1]WD[ξ(4-Aminopyrrolidine-3-CO)]AIA[β3hE]YA[X1]RIE[X1]LI[ξ(4-Aminopyrrolidine-3-CO)]AAQ[β3hE]QQ[β3hE]KNE[X1]AL[ξ(4-Aminopyrrolidine-3-CO)]EL-NH2) | 5 nM | 5 ± 2 nM | – |
| CC[C@H](C)[C@H](NC(=O)[C@H](C)NC(=O)C[C@H](CCCNC(=N)N)NC(=O)[C@H](CC(=O)O)NC(=O)[C@H](Cc1c[nH]c2ccccc12)NC(=O)C[C@H](CCC(=O)O)NC(=O)[C@H](CCC(=O)O)NC(=O)[C@H](Cc1c[nH]c2ccccc12)NC(=O)[C@@H](NC(=O)C[C@H](CCCNC(=N)N)NC(C)=O)[C@@H](C)O)C(=O)N[C@@H](C)C(=O)N[C@@H](CCC(=O)O)CC(=O)N[C@@H](Cc1ccc(O)cc1)C(=O)N[C@@H](C)C(=O)N[C@H]1CCC[C@@H]1C(=O)N[C@@H](CCCNC(=N)N)C(=O)N[C@H](C(=O)N[C@@H](CCC(=O)O)C(=O)N[C@H]1CCC[C@@H]1C(=O)N[C@@H](CC(C)C)C(=O)N[C@H](C(=O)N[C@H]1CNC[C@@H]1C(=O)N[C@@H](C)C(=O)N[C@@H](C)C(=O)N[C@@H](CCC(N)=O)C(=O)N[C@H]1CCC[C@@H]1C(=O)N[C@@H](CCC(N)=O)C(=O)N[C@@H](CCC(N)=O)C(=O)N[C@H]1CNC[C@@H]1C(=O)N[C@@H](CCCCN)C(=O)N[C@@H](CC(N)=O)C(=O)N[C@@H](CCC(=O)O)C(=O)N[C@H]1CCC[C@@H]1C(=O)N[C@@H](C)C(=O)N[C@@H](CC(C)C)C(=O)N[C@H]1CNC[C@@H]1C(=O)N[C@@H](CCC(=O)O)C(=O)N[C@@H](CC(C)C)C(N)=O)[C@@H](C)CC)[C@@H](C)CC [compound 16, Ac-RTWEEWDRAIAEYAXRIEXLIZAAQXQQZKNEXALZEL-NH2] (Ac-[β3hR]TWE[β3hE]WD[β3hR]AIA[β3hE]YA[X2]RIE[X2]LI[X3]AAQ[X2]QQ[X3]KNE[X2]AL[X3]EL-NH2) | – | – | 3 nM |
